T1: RBFOX1 RRM RbFoxmut (Fox-RRM*) (Homo sapiens, UniProt Q9NWB1 109-208, R118D;E147R;N151S;E152T)
T1 sequence: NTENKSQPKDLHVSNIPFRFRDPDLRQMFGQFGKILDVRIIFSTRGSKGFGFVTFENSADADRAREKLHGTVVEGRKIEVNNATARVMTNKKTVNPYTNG

B1: UUGCUGG (DNA:RNA)
RNA: GGGAGACCGGAAUUCAGAUUGUCCUUGCUGGUUAAAUCCCGUCGUAGCCACCA
DNA 1: CAATCTGAATTCCGGTCTCCC
DNA 2: TGGTGGCTACGACGGGATT
B2: AGUGCAA (DNA:RNA)
RNA: GGGAGACCGGAAUUCAGAUUGUCCAGUGCAAUUAAAUCCCGUCGUAGCCACCA
DNA 1: CAATCTGAATTCCGGTCTCCC
DNA 2: TGGTGGCTACGACGGGATT
B3: AGGACAG (DNA:RNA)
RNA: B2 RNA with U27G, G28A, A31G
DNA 1: CAATCTGAATTCCGGTCTCCC
DNA 2: TGGTGGCTACGACGGGATT
B4: AUGGCAG (DNA:RNA)
RNA: B2 RNA with G26U, U27G, A31G
DNA 1: CAATCTGAATTCCGGTCTCCC
DNA 2: TGGTGGCTACGACGGGATT
B5: CAAAAUC (DNA:RNA)
RNA: GGGAGACCGGAAUUCAGAUUGUCCCAAAAUCUUAAAUCCCGUCGUAGCCACCA
DNA 1: CAATCTGAATTCCGGTCTCCC
DNA 2: TGGTGGCTACGACGGGATT
B6: GAGCUAU (DNA:RNA)
RNA: B1 RNA with U25G, U26A, G30A, G31U
DNA 1: CAATCTGAATTCCGGTCTCCC
DNA 2: TGGTGGCTACGACGGGATT
B7: GCACCGC (DNA:RNA)
RNA: B5 RNA with C25G, A26C, A28C, A29C, U30G
DNA 1: CAATCTGAATTCCGGTCTCCC
DNA 2: TGGTGGCTACGACGGGATT
B8: CCGCGGG (DNA:RNA)
RNA: B1 RNA with U25C, U26C, U29G
DNA 1: CAATCTGAATTCCGGTCTCCC
DNA 2: TGGTGGCTACGACGGGATT
B9: UGAGGGA (DNA:RNA)
RNA: B2 RNA with A25U, U27A, C29G, A30G
DNA 1: CAATCTGAATTCCGGTCTCCC
DNA 2: TGGTGGCTACGACGGGATT
B10: CUCUCAG (DNA:RNA)
RNA: B2 RNA with A25C, G26U, U27C, G28U, A31G
DNA 1: CAATCTGAATTCCGGTCTCCC
DNA 2: TGGTGGCTACGACGGGATT
B11: UUGUAUC (DNA:RNA)
RNA: B5 RNA with C25U, A26U, A27G, A28U
DNA 1: CAATCTGAATTCCGGTCTCCC
DNA 2: TGGTGGCTACGACGGGATT
B12: GUAACGC (DNA:RNA)
RNA: B5 RNA with C25G, A26U, A29C, U30G
DNA 1: CAATCTGAATTCCGGTCTCCC
DNA 2: TGGTGGCTACGACGGGATT
B13: AUGGAUC (DNA:RNA)
RNA: B5 RNA with C25A, A26U, A27G, A28G
DNA 1: CAATCTGAATTCCGGTCTCCC
DNA 2: TGGTGGCTACGACGGGATT
B14: AGGACAU (DNA:RNA)
RNA: B2 RNA with U27G, G28A, A31U
DNA 1: CAATCTGAATTCCGGTCTCCC
DNA 2: TGGTGGCTACGACGGGATT
B15: AUUCUUC (DNA:RNA)
RNA: B1 RNA with U25A, G27U, G30U, G31C
DNA 1: CAATCTGAATTCCGGTCTCCC
DNA 2: TGGTGGCTACGACGGGATT
B16: CUGGGAA (DNA:RNA)
RNA: B2 RNA with A25C, G26U, U27G, C29G
DNA 1: CAATCTGAATTCCGGTCTCCC
DNA 2: TGGTGGCTACGACGGGATT
B17: AUAUUCU (DNA:RNA)
RNA: B1 RNA with U25A, G27A, C28U, G30C, G31U
DNA 1: CAATCTGAATTCCGGTCTCCC
DNA 2: TGGTGGCTACGACGGGATT
B18: AACUGUG (DNA:RNA)
RNA: B5 RNA with C25A, A27C, A28U, A29G, C31G
DNA 1: CAATCTGAATTCCGGTCTCCC
DNA 2: TGGTGGCTACGACGGGATT
B19: CCUGUUA (DNA:RNA)
RNA: B2 RNA with A25C, G26C, C29U, A30U
DNA 1: CAATCTGAATTCCGGTCTCCC
DNA 2: TGGTGGCTACGACGGGATT
B20: CGUACGG (DNA:RNA)
RNA: B2 RNA with A25C, G28A, A30G, A31G
DNA 1: CAATCTGAATTCCGGTCTCCC
DNA 2: TGGTGGCTACGACGGGATT
B21: CGACACC (DNA:RNA)
RNA: B5 RNA with A26G, A28C, U30C
DNA 1: CAATCTGAATTCCGGTCTCCC
DNA 2: TGGTGGCTACGACGGGATT
B22: CAGGGCA (DNA:RNA)
RNA: B2 RNA with A25C, G26A, U27G, C29G, A30C
DNA 1: CAATCTGAATTCCGGTCTCCC
DNA 2: TGGTGGCTACGACGGGATT
B23: GCCGACG (DNA:RNA)
RNA: B2 RNA with A25G, G26C, U27C, C29A, A30C, A31G
DNA 1: CAATCTGAATTCCGGTCTCCC
DNA 2: TGGTGGCTACGACGGGATT
B24: GGAGACA (DNA:RNA)
RNA: B2 RNA with A25G, U27A, C29A, A30C
DNA 1: CAATCTGAATTCCGGTCTCCC
DNA 2: TGGTGGCTACGACGGGATT
B25: ACGCCUU (DNA:RNA)
RNA: B2 RNA with G26C, U27G, G28C, A30U, A31U
DNA 1: CAATCTGAATTCCGGTCTCCC
DNA 2: TGGTGGCTACGACGGGATT
B26: GGUUAUU (DNA:RNA)
RNA: B2 RNA with A25G, G28U, C29A, A30U, A31U
DNA 1: CAATCTGAATTCCGGTCTCCC
DNA 2: TGGTGGCTACGACGGGATT
B27: CUUCCAC (DNA:RNA)
RNA: B2 RNA with A25C, G26U, G28C, A31C
DNA 1: CAATCTGAATTCCGGTCTCCC
DNA 2: TGGTGGCTACGACGGGATT
B28: CUCUCGC (DNA:RNA)
RNA: B5 RNA with A26U, A27C, A28U, A29C, U30G
DNA 1: CAATCTGAATTCCGGTCTCCC
DNA 2: TGGTGGCTACGACGGGATT
B29: CAUUAUG (DNA:RNA)
RNA: B5 RNA with A27U, A28U, C31G
DNA 1: CAATCTGAATTCCGGTCTCCC
DNA 2: TGGTGGCTACGACGGGATT
B30: UGUGGGC (DNA:RNA)
RNA: B2 RNA with A25U, C29G, A30G, A31C
DNA 1: CAATCTGAATTCCGGTCTCCC
DNA 2: TGGTGGCTACGACGGGATT
B31: UAGACCG (DNA:RNA)
RNA: B1 RNA with U26A, C28A, U29C, G30C
DNA 1: CAATCTGAATTCCGGTCTCCC
DNA 2: TGGTGGCTACGACGGGATT

Substitutions are numbered along the chain they refer to; changes in the protein carry UniProt numbers. Some of the results follow.

The target in the test is T1, RBFOX1 RRM RbFoxmut (Fox-RRM*). Briefly: EMSA; HiTS-Eq, 1 nM pool, 10 min; buffer printed only for the single-RNA assays: 10 mM Tris pH 7.5, 150 mM NaCl, 3.4 mM EDTA, 0.001% NP-40, 30 C. The conditions noted are these: tags: His6 N-terminal (pET28a); label: 5' 32P. The gist of the method: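 These values rest on relative association constants, computed from read-count changes of each RNA species versus the control reaction and normalised to the cognate motif. Reads came from free RNA recovered by 8% native PAGE after purified RbFox RRM (wild type or mutant) at increasing concentrations was equilibrated for 10 min in 50 µL with 1 nM of a 5′-radiolabelled pool with 7 randomized nucleotides and DNA-annealed flanks.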
On to B1, for which the binding signal is 0.128 KA relative to UGCAUGU.

Regarding B2, the binding signal is 0.0655 KA relative to UGCAUGU.

Take B3: the binding signal was 0.0616 KA relative to UGCAUGU.

Turning to B4, the binding signal was 0.119 KA relative to UGCAUGU.

With B5, the binding signal was 0.0517 KA relative to UGCAUGU.

Regarding B6, the binding signal was 0.0915 KA relative to UGCAUGU.

In the case of B7, the binding signal was 0.139 KA relative to UGCAUGU.

As for B8, the binding signal is 0.07 KA relative to UGCAUGU.

As to B9, the binding signal was 0.0508 KA relative to UGCAUGU.

As for B10, the binding signal was 0.107 KA relative to UGCAUGU.

Regarding B11, the binding signal is 0.523 KA relative to UGCAUGU.

In the case of B12, the binding signal was 0.0798 KA relative to UGCAUGU.

B13: the binding signal is 0.298 KA relative to UGCAUGU.

For the molecule B14, the binding signal is 0.0571 KA relative to UGCAUGU.

In the case of B15, the binding signal is 0.0673 KA relative to UGCAUGU.

With B16, the binding signal is 0.12 KA relative to UGCAUGU.

In the case of B17, the binding signal was 0.0971 KA relative to UGCAUGU.

On to B18, for which the binding signal was 0.113 KA relative to UGCAUGU.

Regarding B19, the binding signal is 0.143 KA relative to UGCAUGU.

B20: the binding signal is 0.116 KA relative to UGCAUGU.

Turning to B21, the binding signal was 0.0301 KA relative to UGCAUGU.

Consider B22, for which the binding signal was 0.0722 KA relative to UGCAUGU.

B23: the binding signal is 0.079 KA relative to UGCAUGU.

Regarding B24, the binding signal was 0.089 KA relative to UGCAUGU.

Consider B25, for which the binding signal is 0.0769 KA relative to UGCAUGU.

With B26, the binding signal was 0.076 KA relative to UGCAUGU.

As for B27, the binding signal was 0.0949 KA relative to UGCAUGU.

On to B28, for which the binding signal was 0.0846 KA relative to UGCAUGU.

For B29, the binding signal was 0.163 KA relative to UGCAUGU.

Regarding B30, the binding signal is 0.0948 KA relative to UGCAUGU.

Regarding B31, the binding signal was 0.0461 KA relative to UGCAUGU.

These data come from article PMC9911399, “Two distinct binding modes provide the RNA-binding protein RbFox with extraordinary sequence specificity”.
